Source: PMC9911399, “Two distinct binding modes provide the RNA-binding protein RbFox with extraordinary sequence specificity”
Positions count from the first letter of the chain named. This is one part of the list.

T1: RBFOX1 RRM (Homo sapiens, UniProt Q9NWB1 109-208)
T1 sequence: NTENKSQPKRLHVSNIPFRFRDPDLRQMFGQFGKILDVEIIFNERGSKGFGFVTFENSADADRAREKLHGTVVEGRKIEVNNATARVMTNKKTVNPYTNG

B1: UCUUUAC (DNA:RNA)
RNA: GGGAGACCGGAAUUCAGAUUGUCCUCUUUACUUAAAUCCCGUCGUAGCCACCA
DNA 1: CAATCTGAATTCCGGTCTCCC
DNA 2: TGGTGGCTACGACGGGATT
B2: UCCGAAG (DNA:RNA)
RNA: B1 RNA with U27C, U28G, U29A, C31G
DNA 1: CAATCTGAATTCCGGTCTCCC
DNA 2: TGGTGGCTACGACGGGATT
B3: AUCGCGA (DNA:RNA)
RNA: GGGAGACCGGAAUUCAGAUUGUCCAUCGCGAUUAAAUCCCGUCGUAGCCACCA
DNA 1: CAATCTGAATTCCGGTCTCCC
DNA 2: TGGTGGCTACGACGGGATT
B4: GAGAUCG (DNA:RNA)
RNA: B1 RNA with U25G, C26A, U27G, U28A, A30C, C31G
DNA 1: CAATCTGAATTCCGGTCTCCC
DNA 2: TGGTGGCTACGACGGGATT
B5: AAUCGAC (DNA:RNA)
RNA: B1 RNA with U25A, C26A, U28C, U29G
DNA 1: CAATCTGAATTCCGGTCTCCC
DNA 2: TGGTGGCTACGACGGGATT
B6: UACAAGG (DNA:RNA)
RNA: B3 RNA with A25U, U26A, G28A, C29A, A31G
DNA 1: CAATCTGAATTCCGGTCTCCC
DNA 2: TGGTGGCTACGACGGGATT
B7: CGCACUA (DNA:RNA)
RNA: B3 RNA with A25C, U26G, G28A, G30U
DNA 1: CAATCTGAATTCCGGTCTCCC
DNA 2: TGGTGGCTACGACGGGATT
B8: UGUAAUG (DNA:RNA)
RNA: B1 RNA with C26G, U28A, U29A, A30U, C31G
DNA 1: CAATCTGAATTCCGGTCTCCC
DNA 2: TGGTGGCTACGACGGGATT
B9: AAUUGAU (DNA:RNA)
RNA: B1 RNA with U25A, C26A, U29G, C31U
DNA 1: CAATCTGAATTCCGGTCTCCC
DNA 2: TGGTGGCTACGACGGGATT
B10: UCCUGAG (DNA:RNA)
RNA: B1 RNA with U27C, U29G, C31G
DNA 1: CAATCTGAATTCCGGTCTCCC
DNA 2: TGGTGGCTACGACGGGATT
B11: CGACCUA (DNA:RNA)
RNA: B3 RNA with A25C, U26G, C27A, G28C, G30U
DNA 1: CAATCTGAATTCCGGTCTCCC
DNA 2: TGGTGGCTACGACGGGATT
B12: ACUUUGG (DNA:RNA)
RNA: B1 RNA with U25A, A30G, C31G
DNA 1: CAATCTGAATTCCGGTCTCCC
DNA 2: TGGTGGCTACGACGGGATT
B13: UCAGCGA (DNA:RNA)
RNA: B3 RNA with A25U, U26C, C27A
DNA 1: CAATCTGAATTCCGGTCTCCC
DNA 2: TGGTGGCTACGACGGGATT
B14: UAGGUCA (DNA:RNA)
RNA: B3 RNA with A25U, U26A, C27G, C29U, G30C
DNA 1: CAATCTGAATTCCGGTCTCCC
DNA 2: TGGTGGCTACGACGGGATT
B15: CGCUACA (DNA:RNA)
RNA: B3 RNA with A25C, U26G, G28U, C29A, G30C
DNA 1: CAATCTGAATTCCGGTCTCCC
DNA 2: TGGTGGCTACGACGGGATT
B16: GCGGCUA (DNA:RNA)
RNA: B3 RNA with A25G, U26C, C27G, G30U
DNA 1: CAATCTGAATTCCGGTCTCCC
DNA 2: TGGTGGCTACGACGGGATT
B17: ACAAAGA (DNA:RNA)
RNA: B3 RNA with U26C, C27A, G28A, C29A
DNA 1: CAATCTGAATTCCGGTCTCCC
DNA 2: TGGTGGCTACGACGGGATT
B18: AUUGAGG (DNA:RNA)
RNA: B3 RNA with C27U, C29A, A31G
DNA 1: CAATCTGAATTCCGGTCTCCC
DNA 2: TGGTGGCTACGACGGGATT
B19: AACGGUA (DNA:RNA)
RNA: B3 RNA with U26A, C29G, G30U
DNA 1: CAATCTGAATTCCGGTCTCCC
DNA 2: TGGTGGCTACGACGGGATT
B20: UCCAAAG (DNA:RNA)
RNA: B1 RNA with U27C, U28A, U29A, C31G
DNA 1: CAATCTGAATTCCGGTCTCCC
DNA 2: TGGTGGCTACGACGGGATT
B21: CUUAUGU (DNA:RNA)
RNA: B3 RNA with A25C, C27U, G28A, C29U, A31U
DNA 1: CAATCTGAATTCCGGTCTCCC
DNA 2: TGGTGGCTACGACGGGATT
B22: CGCACCG (DNA:RNA)
RNA: B3 RNA with A25C, U26G, G28A, G30C, A31G
DNA 1: CAATCTGAATTCCGGTCTCCC
DNA 2: TGGTGGCTACGACGGGATT
B23: GAAAACC (DNA:RNA)
RNA: B1 RNA with U25G, C26A, U27A, U28A, U29A, A30C
DNA 1: CAATCTGAATTCCGGTCTCCC
DNA 2: TGGTGGCTACGACGGGATT
B24: AUCACUU (DNA:RNA)
RNA: B3 RNA with G28A, G30U, A31U
DNA 1: CAATCTGAATTCCGGTCTCCC
DNA 2: TGGTGGCTACGACGGGATT
B25: CUCAGCG (DNA:RNA)
RNA: B3 RNA with A25C, G28A, C29G, G30C, A31G
DNA 1: CAATCTGAATTCCGGTCTCCC
DNA 2: TGGTGGCTACGACGGGATT
B26: UAAGUCU (DNA:RNA)
RNA: B1 RNA with C26A, U27A, U28G, A30C, C31U
DNA 1: CAATCTGAATTCCGGTCTCCC
DNA 2: TGGTGGCTACGACGGGATT
B27: GAUUCUU (DNA:RNA)
RNA: B1 RNA with U25G, C26A, U29C, A30U, C31U
DNA 1: CAATCTGAATTCCGGTCTCCC
DNA 2: TGGTGGCTACGACGGGATT
B28: UGCAUUA (DNA:RNA)
RNA: B3 RNA with A25U, U26G, G28A, C29U, G30U
DNA 1: CAATCTGAATTCCGGTCTCCC
DNA 2: TGGTGGCTACGACGGGATT
B29: UACGGGC (DNA:RNA)
RNA: B3 RNA with A25U, U26A, C29G, A31C
DNA 1: CAATCTGAATTCCGGTCTCCC
DNA 2: TGGTGGCTACGACGGGATT
B30: GAUAUUC (DNA:RNA)
RNA: B1 RNA with U25G, C26A, U28A, A30U
DNA 1: CAATCTGAATTCCGGTCTCCC
DNA 2: TGGTGGCTACGACGGGATT
B31: GCUGACG (DNA:RNA)
RNA: B1 RNA with U25G, U28G, U29A, A30C, C31G
DNA 1: CAATCTGAATTCCGGTCTCCC
DNA 2: TGGTGGCTACGACGGGATT

The binders below were run against T1, RBFOX1 RRM (assay: EMSA; HiTS-Eq, 1 nM pool, 10 min; buffer printed only for the single-RNA assays: 10 mM Tris pH 7.5, 150 mM NaCl, 3.4 mM EDTA, 0.001% NP-40, 30 C). Settings: tags: His6 N-terminal (pET28a); label: 5' 32P.
Outline: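 Purified RbFox RRM, wild type or mutant, was incubated for 10 min in 50 µL with 1 nM of a 5′-radiolabelled RNA pool carrying 7 randomized nucleotides, whose flanks were annealed to DNA oligonucleotides, over a series of increasing protein concentrations. Unbound RNA was resolved on 8% native PAGE, cut out, reverse-transcribed, barcoded by PCR and sequenced on an Illumina HiSeq 2500. Relative association constants were derived from changes in read counts for each RNA species versus the control reaction and normalised to the cognate motif.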

In order of falling binding signal:
1. B31  0.022 KA relative to UGCAUGU
2. B16  0.0205 KA relative to UGCAUGU
3. B4  0.017 KA relative to UGCAUGU
4. B10  0.0159 KA relative to UGCAUGU
5. B28  0.0146 KA relative to UGCAUGU
6. B8  0.0145 KA relative to UGCAUGU
7. B12  0.0131 KA relative to UGCAUGU
8. B18  0.0112 KA relative to UGCAUGU
9. B26  0.0111 KA relative to UGCAUGU
10. B27  0.011 KA relative to UGCAUGU
11. B2  0.0109 KA relative to UGCAUGU
12. B15  0.0104 KA relative to UGCAUGU
13. B14  0.0102 KA relative to UGCAUGU
14. B1  0.00986 KA relative to UGCAUGU
15. B21  0.00864 KA relative to UGCAUGU
16. B19  0.00847 KA relative to UGCAUGU
17. B25  0.00772 KA relative to UGCAUGU
18. B3  0.00755 KA relative to UGCAUGU
19. B22  0.00744 KA relative to UGCAUGU
20. B6  0.00739 KA relative to UGCAUGU
21. B30  0.00674 KA relative to UGCAUGU
22. B9  0.00581 KA relative to UGCAUGU
23. B13  0.00561 KA relative to UGCAUGU
24. B7  0.00504 KA relative to UGCAUGU
25. B29  0.00384 KA relative to UGCAUGU
26. B5  0.00344 KA relative to UGCAUGU
27. B20  0.00328 KA relative to UGCAUGU
28. B11  0.00202 KA relative to UGCAUGU
29. B17  0.00132 KA relative to UGCAUGU
30. B23  0.000838 KA relative to UGCAUGU
31. B24  0.000469 KA relative to UGCAUGU
